In all, about 33,000 sequences were measured (“E-score (-0.5 to 0.5)”: median about -0.012, highest 2% from about 0.29 on). This is one part of the list.
These sequences were tested against T1, Ybr033w (UniProt P38073) (assay: PBM E-score (8-mer binding enrichment) (E-score (-0.5 to 0.5)); higher = stronger / more preferred TF binding; most listed sequences are background and not binding sites). Conditions: protein concentration: 200 nM; construct: GST-full length.
T1 sequence: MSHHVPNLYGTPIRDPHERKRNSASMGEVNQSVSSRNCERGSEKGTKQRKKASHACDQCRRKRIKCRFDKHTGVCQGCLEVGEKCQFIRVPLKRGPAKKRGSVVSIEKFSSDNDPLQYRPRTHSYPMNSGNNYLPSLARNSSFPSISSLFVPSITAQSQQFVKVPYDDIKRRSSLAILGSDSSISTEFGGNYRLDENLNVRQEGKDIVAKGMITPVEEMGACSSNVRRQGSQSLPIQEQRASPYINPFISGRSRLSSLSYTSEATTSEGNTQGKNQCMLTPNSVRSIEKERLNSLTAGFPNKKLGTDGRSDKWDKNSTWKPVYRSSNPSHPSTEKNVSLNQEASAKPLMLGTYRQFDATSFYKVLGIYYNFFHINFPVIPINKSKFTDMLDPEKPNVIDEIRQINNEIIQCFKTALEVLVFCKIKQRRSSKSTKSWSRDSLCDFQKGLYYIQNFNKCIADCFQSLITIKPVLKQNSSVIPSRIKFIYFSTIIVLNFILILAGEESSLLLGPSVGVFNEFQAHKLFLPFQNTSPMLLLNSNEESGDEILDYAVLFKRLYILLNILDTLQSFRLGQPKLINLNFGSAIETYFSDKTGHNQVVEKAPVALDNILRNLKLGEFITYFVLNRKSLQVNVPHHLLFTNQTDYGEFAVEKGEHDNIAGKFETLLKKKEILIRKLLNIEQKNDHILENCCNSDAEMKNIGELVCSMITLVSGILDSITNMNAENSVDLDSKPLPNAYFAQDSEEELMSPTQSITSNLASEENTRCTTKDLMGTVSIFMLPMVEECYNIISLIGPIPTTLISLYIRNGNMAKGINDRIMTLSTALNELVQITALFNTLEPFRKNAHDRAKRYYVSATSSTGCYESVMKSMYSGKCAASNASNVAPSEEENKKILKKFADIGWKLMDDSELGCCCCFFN
In short: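 Using PURExpress in vitro transcription/translation, GST-tagged yeast transcription factors were made in full-length or DNA-binding-domain form. These were applied at about 100-200 nM to double-stranded universal all-10-mer Agilent arrays, and bound protein was detected with fluorescent anti-GST. Scans were normalised with masliner before the Universal PBM Analysis Suite assigned E-scores to ungapped eight-base words pooled with their reverse complements.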

| Sequence | PBM E-score |
| --- | --- |
| ACTGAAAT | 0.0947 |
| ATGATGTC | 0.112 |
| AGAAATGG | -0.0479 |
| CCTGGCTA | -0.152 |
| CAGGAGTC | -0.099 |
| CACAAGGC | -0.158 |
| AACGTGGC | -0.0586 |
| CGATCCGC | -0.0786 |
| ACTCGGGA | 0.102 |
| AGTATTAC | 0.283 |
| CCTTCCTC | -0.253 |
| CACTAACG | -0.0627 |
| CGGTAAAA | 0.244 |
| GACCTGCC | -0.255 |
| GAATATTC | 0.344 |
| GCGTGACC | -0.213 |
| CACAGAGA | 0.0183 |
| AAGCCCAA | -0.00409 |
| CAACCGGA | 0.0416 |
| CAATCTAG | 0.217 |
| CGTGTACA | 0.18 |
| CACTTTAA | 0.233 |
| CTAATTTA | 0.257 |
| CCTAGACG | -0.111 |
| CACTGCAG | -0.0371 |

| Sequence | PBM E-score |
| --- | --- |
| ATACCACG | 0.0729 |
| AGATTCGC | 0.11 |
| ATGGCGTG | -0.0302 |
| GAAAGCGC | -0.0759 |
| GAACCTTC | -0.0145 |
| GTAAAAGA | 0.155 |
| ACCAAAGT | 0.0666 |
| ACAGCTGG | -0.228 |
| TTCCTCAA | 0.0682 |
| AACCAGTG | -0.164 |
| CGAAGCAG | -0.125 |
| GAGTACTC | -0.0318 |
| GCAGTGTA | -0.0047 |
| TGGTGGAA | 0.137 |
| AGGAGCCA | -0.0808 |
| AACACTCA | 0.13 |
| ACAGGCCG | -0.216 |
| AGATACTC | 0.0315 |
| ACTGACGA | -0.0835 |
| AGTCTCCG | 0.0071 |
| GAAAAATA | 0.397 |
| AAGGACAT | -0.0316 |
| GCTGCCAC | -0.162 |
| ACCAGCTC | -0.0828 |
| CGTCAACG | -0.0824 |

| Sequence | PBM E-score |
| --- | --- |
| TAAGTTAA | 0.206 |
| ACATCGCG | 0.0198 |
| CCTGCCGC | -0.318 |
| TCGGTAAA | 0.0329 |
| GATTGTGC | 0.125 |
| ACCTTTTA | -0.0294 |
| ATCCTTTG | 0.0379 |
| CCGCCGCG | -0.155 |
| CACTTTTC | 0.255 |
| GTATGCAC | -0.139 |
| GATCGGCC | -0.241 |
| CCTGGATA | -0.119 |
| AAAATCCT | 0.0338 |
| ATGCCCGG | -0.0338 |
| CCAAAAAG | 0.109 |
| GTGTTATA | 0.142 |
| ACCACGGG | -0.208 |
| AATTTTAC | 0.282 |
| CCCGCCGA | -0.211 |
| ACATTAAG | 0.278 |
| ACCGGTTA | -0.0148 |
| CCCAAGGC | -0.126 |
| GGAGGCTA | -0.252 |
| GTTGGGTA | 0.0529 |
| ATAATCGC | 0.065 |

| Sequence | PBM E-score |
| --- | --- |
| CAGATGCA | -0.275 |
| AACCACGA | 0.0821 |
| CATAACCC | -0.0807 |
| AGAAACAA | 0.258 |
| GAATTGTA | 0.215 |
| CTTGCAAA | 0.0795 |
| CCTTAAAG | 0.0759 |
| CCGTGGCG | -0.244 |
| ATACAGAA | 0.137 |
| CATGGCGG | -0.291 |
| CATTTAGG | -0.143 |
| AGCTGGTG | -0.141 |
| GCTTCGGA | 0.119 |
| CTGCAGAA | -0.0198 |
| CCGTTCGA | 0.0178 |
| CGCGGCTC | -0.13 |
| CAAGTTCA | 0.183 |
| GATTATGA | 0.198 |
| GTCGCGGA | -0.162 |
| CAAGCATA | -0.011 |
| CTATAATA | 0.156 |
| AGGGGTAT | -0.219 |
| CACATCCA | 0.0566 |
| GCATAGGC | -0.216 |
| AACATAGC | 0.0451 |

| Sequence | PBM E-score |
| --- | --- |
| ACGCCGTA | 0.0613 |
| ACAACACT | 0.22 |
| CCAAATAC | -0.0715 |
| CTTGCAGA | -0.043 |
| CTCGGAAA | 0.168 |
| GGATGTTA | 0.0298 |
| CCCTCTTA | -0.00358 |
| CAACGTAC | 0.0636 |
| AAGGCTTG | -0.12 |
| ACTAAATA | 0.322 |
| CCAGCGGA | -0.326 |
| CGATAGCG | -0.0418 |
| ACGCATGC | 0.113 |
| AGGGTTCG | -0.257 |
| TCCTTGAA | -0.0413 |
| CCAGGTCC | -0.333 |
| ACGGATAT | 0.192 |
| TATTGACA | 0.00171 |
| GTTATCTA | 0.171 |
| CGACATCG | -0.191 |
| ACAGCCCT | -0.179 |
| CTCTCACC | -0.133 |
| GACCAGCA | -0.114 |
| AACACCGT | -0.231 |
| GCCCCCCC | -0.428 |

| Sequence | PBM E-score |
| --- | --- |
| AATTAGCT | 0.122 |
| AGCGCGAA | 0.0642 |
| CTGCGGAA | -0.117 |
| GATATTCA | 0.12 |
| CCGCACTC | 0.103 |
| AAGTCTAC | 0.0377 |
| AACAAGGT | 0.0196 |
| ATAAATTC | 0.308 |
| TACTCCCA | 0.0906 |
| CCACACCC | -0.118 |
| CATGATCG | 0.0156 |
| GCCCCAGA | -0.197 |
| CGCATATC | 0.19 |
| CAGGCTAC | -0.131 |
| CTGGTCAC | 0.0118 |
| ACGTGGAC | -0.132 |
| AGGAGTTG | -0.046 |
| CAAAGCCC | -0.0974 |
| ACCGGACA | -0.258 |
| CGGCTAGA | -0.134 |
| AACCTTCA | 0.0345 |
| AAGCATAT | 0.0942 |
| AGCCTACC | -0.0524 |
| AATATACG | 0.0565 |
| GCAATAAA | 0.187 |

| Sequence | PBM E-score |
| --- | --- |
| CGTGTCGA | -0.0365 |
| CATAACTC | 0.0871 |
| CAGGCAAC | -0.0967 |
| CGGAATCA | 0.104 |
| CACGTATG | 0.0761 |
| AAATGGAG | 0.126 |
| GGCCTTCA | -0.137 |
| AACCGACA | 0.108 |
| CAATTTGG | 0.108 |
| ACACGGGA | -0.182 |
| CGTACCGC | -0.17 |
| CTCCCACA | -0.139 |
| GCTTGTCA | -0.0866 |
| AACACTTC | 0.21 |
| ATCGGCAC | -0.00252 |
| CTATGGGC | -0.162 |
| ACCACCCT | -0.184 |
| GCCCGGGA | -0.0848 |
| CCCCGCGC | -0.298 |
| GTTAATCA | 0.277 |
| ACGGGAGG | -0.258 |
| CAACGAAA | 0.209 |
